From paper PMC9911399, “Two distinct binding modes provide the RNA-binding protein RbFox with extraordinary sequence specificity”
Residue numbers refer to the chain shown, from its start. The list shows a part of the results.

B1: CUCGUCU (DNA:RNA)
RNA: GGGAGACCGGAAUUCAGAUUGUCCCUCGUCUUUAAAUCCCGUCGUAGCCACCA
DNA 1: CAATCTGAATTCCGGTCTCCC
DNA 2: TGGTGGCTACGACGGGATT
B2: GACUUGC (DNA:RNA)
RNA: B1 RNA with C25G, U26A, G28U, C30G, U31C
DNA 1: CAATCTGAATTCCGGTCTCCC
DNA 2: TGGTGGCTACGACGGGATT
B3: GCGCGCA (DNA:RNA)
RNA: B1 RNA with C25G, U26C, C27G, G28C, U29G, U31A
DNA 1: CAATCTGAATTCCGGTCTCCC
DNA 2: TGGTGGCTACGACGGGATT
B4: GCUACCA (DNA:RNA)
RNA: B1 RNA with C25G, U26C, C27U, G28A, U29C, U31A
DNA 1: CAATCTGAATTCCGGTCTCCC
DNA 2: TGGTGGCTACGACGGGATT
B5: GGUUAUA (DNA:RNA)
RNA: GGGAGACCGGAAUUCAGAUUGUCCGGUUAUAUUAAAUCCCGUCGUAGCCACCA
DNA 1: CAATCTGAATTCCGGTCTCCC
DNA 2: TGGTGGCTACGACGGGATT
B6: UCGGGGA (DNA:RNA)
RNA: B1 RNA with C25U, U26C, C27G, U29G, C30G, U31A
DNA 1: CAATCTGAATTCCGGTCTCCC
DNA 2: TGGTGGCTACGACGGGATT
B7: GAAUCCA (DNA:RNA)
RNA: B5 RNA with G26A, U27A, A29C, U30C
DNA 1: CAATCTGAATTCCGGTCTCCC
DNA 2: TGGTGGCTACGACGGGATT
B8: UCAUGGG (DNA:RNA)
RNA: B5 RNA with G25U, G26C, U27A, A29G, U30G, A31G
DNA 1: CAATCTGAATTCCGGTCTCCC
DNA 2: TGGTGGCTACGACGGGATT
B9: GGUGUAC (DNA:RNA)
RNA: B5 RNA with U28G, A29U, U30A, A31C
DNA 1: CAATCTGAATTCCGGTCTCCC
DNA 2: TGGTGGCTACGACGGGATT
B10: CCAUGCC (DNA:RNA)
RNA: B1 RNA with U26C, C27A, G28U, U29G, U31C
DNA 1: CAATCTGAATTCCGGTCTCCC
DNA 2: TGGTGGCTACGACGGGATT
B11: GGACUAA (DNA:RNA)
RNA: B5 RNA with U27A, U28C, A29U, U30A
DNA 1: CAATCTGAATTCCGGTCTCCC
DNA 2: TGGTGGCTACGACGGGATT
B12: UACCUAC (DNA:RNA)
RNA: B1 RNA with C25U, U26A, G28C, C30A, U31C
DNA 1: CAATCTGAATTCCGGTCTCCC
DNA 2: TGGTGGCTACGACGGGATT
B13: AAUACGG (DNA:RNA)
RNA: B5 RNA with G25A, G26A, U28A, A29C, U30G, A31G
DNA 1: CAATCTGAATTCCGGTCTCCC
DNA 2: TGGTGGCTACGACGGGATT
B14: GAUCCCC (DNA:RNA)
RNA: B5 RNA with G26A, U28C, A29C, U30C, A31C
DNA 1: CAATCTGAATTCCGGTCTCCC
DNA 2: TGGTGGCTACGACGGGATT
B15: ACUCCCG (DNA:RNA)
RNA: B1 RNA with C25A, U26C, C27U, G28C, U29C, U31G
DNA 1: CAATCTGAATTCCGGTCTCCC
DNA 2: TGGTGGCTACGACGGGATT
B16: CUUCAGC (DNA:RNA)
RNA: B1 RNA with C27U, G28C, U29A, C30G, U31C
DNA 1: CAATCTGAATTCCGGTCTCCC
DNA 2: TGGTGGCTACGACGGGATT
B17: GUAUGUG (DNA:RNA)
RNA: B5 RNA with G26U, U27A, A29G, A31G
DNA 1: CAATCTGAATTCCGGTCTCCC
DNA 2: TGGTGGCTACGACGGGATT
B18: GGCUCUA (DNA:RNA)
RNA: B5 RNA with U27C, A29C
DNA 1: CAATCTGAATTCCGGTCTCCC
DNA 2: TGGTGGCTACGACGGGATT
B19: AUACUGC (DNA:RNA)
RNA: B1 RNA with C25A, C27A, G28C, C30G, U31C
DNA 1: CAATCTGAATTCCGGTCTCCC
DNA 2: TGGTGGCTACGACGGGATT
B20: CAUGGUA (DNA:RNA)
RNA: B5 RNA with G25C, G26A, U28G, A29G
DNA 1: CAATCTGAATTCCGGTCTCCC
DNA 2: TGGTGGCTACGACGGGATT
B21: UGUUCCG (DNA:RNA)
RNA: B5 RNA with G25U, A29C, U30C, A31G
DNA 1: CAATCTGAATTCCGGTCTCCC
DNA 2: TGGTGGCTACGACGGGATT
B22: CUAACCU (DNA:RNA)
RNA: B1 RNA with C27A, G28A, U29C
DNA 1: CAATCTGAATTCCGGTCTCCC
DNA 2: TGGTGGCTACGACGGGATT
B23: GAGGGAU (DNA:RNA)
RNA: B1 RNA with C25G, U26A, C27G, U29G, C30A
DNA 1: CAATCTGAATTCCGGTCTCCC
DNA 2: TGGTGGCTACGACGGGATT
B24: GAUAUUU (DNA:RNA)
RNA: B5 RNA with G26A, U28A, A29U, A31U
DNA 1: CAATCTGAATTCCGGTCTCCC
DNA 2: TGGTGGCTACGACGGGATT
B25: AAAGAAA (DNA:RNA)
RNA: B5 RNA with G25A, G26A, U27A, U28G, U30A
DNA 1: CAATCTGAATTCCGGTCTCCC
DNA 2: TGGTGGCTACGACGGGATT
B26: UCGAGCA (DNA:RNA)
RNA: B1 RNA with C25U, U26C, C27G, G28A, U29G, U31A
DNA 1: CAATCTGAATTCCGGTCTCCC
DNA 2: TGGTGGCTACGACGGGATT
B27: ACGACAC (DNA:RNA)
RNA: GGGAGACCGGAAUUCAGAUUGUCCACGACACUUAAAUCCCGUCGUAGCCACCA
DNA 1: CAATCTGAATTCCGGTCTCCC
DNA 2: TGGTGGCTACGACGGGATT
B28: CCCACGC (DNA:RNA)
RNA: B27 RNA with A25C, G27C, A30G
DNA 1: CAATCTGAATTCCGGTCTCCC
DNA 2: TGGTGGCTACGACGGGATT
B29: GCCUAUA (DNA:RNA)
RNA: B5 RNA with G26C, U27C
DNA 1: CAATCTGAATTCCGGTCTCCC
DNA 2: TGGTGGCTACGACGGGATT
B30: UGGUGGC (DNA:RNA)
RNA: B27 RNA with A25U, C26G, A28U, C29G, A30G
DNA 1: CAATCTGAATTCCGGTCTCCC
DNA 2: TGGTGGCTACGACGGGATT
B31: CCGGUGA (DNA:RNA)
RNA: B1 RNA with U26C, C27G, C30G, U31A
DNA 1: CAATCTGAATTCCGGTCTCCC
DNA 2: TGGTGGCTACGACGGGATT

Molecular target: T1, RBFOX1 RRM RbFoxmut (Fox-RRM*) (Homo sapiens, UniProt Q9NWB1 109-208, R118D;E147R;N151S;E152T)
T1 sequence: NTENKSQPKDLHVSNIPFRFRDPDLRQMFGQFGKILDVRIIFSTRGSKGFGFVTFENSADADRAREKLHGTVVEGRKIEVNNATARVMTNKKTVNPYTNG
Test: EMSA; HiTS-Eq, 1 nM pool, 10 min; buffer printed only for the single-RNA assays: 10 mM Tris pH 7.5, 150 mM NaCl, 3.4 mM EDTA, 0.001% NP-40, 30 C
Conditions: tags: His6 N-terminal (pET28a); label: 5' 32P
In short: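 Purified RbFox RRM (wild type or mutant) was equilibrated for 10 min in 50 µL with 1 nM of a 5′-radiolabelled pool of RNA with 7 randomized nucleotides, its flanks annealed to DNA oligonucleotides, across increasing protein concentrations. Free RNA was separated by 8% native PAGE, excised, reverse-transcribed, PCR-barcoded and sequenced on an Illumina HiSeq 2500. Relative association constants came from read-count changes of each variant against the control reaction, normalised to the cognate motif.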

Binder | binding signal
B1 | 0.0745 KA relative to UGCAUGU
B2 | 0.133 KA relative to UGCAUGU
B3 | 0.13 KA relative to UGCAUGU
B4 | 0.0847 KA relative to UGCAUGU
B5 | 0.121 KA relative to UGCAUGU
B6 | 0.0781 KA relative to UGCAUGU
B7 | 0.239 KA relative to UGCAUGU
B8 | 0.0933 KA relative to UGCAUGU
B9 | 0.0906 KA relative to UGCAUGU
B10 | 0.19 KA relative to UGCAUGU
B11 | 0.0685 KA relative to UGCAUGU
B12 | 0.111 KA relative to UGCAUGU
B13 | 0.0866 KA relative to UGCAUGU
B14 | 0.0752 KA relative to UGCAUGU
B15 | 0.0703 KA relative to UGCAUGU
B16 | 0.105 KA relative to UGCAUGU

Binder | binding signal
B17 | 0.787 KA relative to UGCAUGU
B18 | 0.0911 KA relative to UGCAUGU
B19 | 0.101 KA relative to UGCAUGU
B20 | 0.217 KA relative to UGCAUGU
B21 | 0.148 KA relative to UGCAUGU
B22 | 0.0999 KA relative to UGCAUGU
B23 | 0.0686 KA relative to UGCAUGU
B24 | 0.0929 KA relative to UGCAUGU
B25 | 0.0982 KA relative to UGCAUGU
B26 | 0.102 KA relative to UGCAUGU
B27 | 0.059 KA relative to UGCAUGU
B28 | 0.0674 KA relative to UGCAUGU
B29 | 0.106 KA relative to UGCAUGU
B30 | 0.0887 KA relative to UGCAUGU
B31 | 0.0874 KA relative to UGCAUGU
